# Laboratory results: the supplement of paper PMC8728848
# Some of the results follow.
# Legend:
# Assay in all cases: glycan array binding signal (z-score within array); higher = stronger binding
# Conditions in all cases: glycan notation: IUPAC condensed, linker removed
# [1] = molecular target: Neu5Ac(a2-3)Gal(b1-4)GlcNAc(b1-2)Man(a1-3)[Neu5Ac(a2-6)Gal(b1-4)GlcNAc(b1-2)Man(a1-6)]Man(b1-4)GlcNAc(b1-4)GlcNAc
# How it was run: (§1)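 Glycan array data came from 3228 arrays in the Consortium for Functional Glycomics database, and only arrays with an available protein sequence were kept. Glycan names were put into IUPAC-condensed notation, and columns mapping to the same glycan were averaged. The binding signal is a within-array Z-score, averaged across arrays of one protein sequence run at different concentrations or buffers and across linkers. A negative Z-score can be read as non-binding.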
# [2] = molecular target: Neu5Ac(a2-3)Gal(b1-4)GlcNAc(b1-2)[Neu5Ac(a2-3)Gal(b1-4)GlcNAc(b1-4)]Man(a1-3)[GlcNAc(b1-4)][Neu5Ac(a2-3)Gal(b1-4)GlcNAc(b1-2)[Neu5Ac(a2-3)Gal(b1-4)GlcNAc(b1-6)]Man(a1-6)]Man(b1-4)GlcNAc(b1-4)GlcNAc
# How it was run: as §1
# [3] = molecular target: Neu5Ac(a2-3)Gal(b1-4)GlcNAc(b1-2)[Neu5Ac(a2-3)Gal(b1-4)GlcNAc(b1-4)]Man(a1-3)[GlcNAc(b1-4)][Neu5Ac(a2-3)Gal(b1-4)GlcNAc(b1-4)Man(a1-6)]Man(b1-4)GlcNAc(b1-4)GlcNAc
# How it was run: as §1
# [4] = molecular target: Neu5Ac(a2-3)Gal(b1-4)GlcNAc(b1-2)[Neu5Ac(a2-3)Gal(b1-4)GlcNAc(b1-6)]Man(a1-6)[Neu5Ac(a2-3)Gal(b1-4)GlcNAc(b1-2)Man(a1-3)][GlcNAc(b1-4)]Man(b1-4)GlcNAc(b1-4)GlcNAc
# How it was run: as §1
# [5] = molecular target: Neu5Ac(a2-3)Gal(b1-4)GlcNAc(b1-3)Gal
# How it was run: as §1
# [6] = molecular target: Neu5Ac(a2-3)Gal(b1-4)GlcNAc(b1-3)Gal(b1-3)GlcNAc
# How it was run: as §1
# [7] = molecular target: Neu5Ac(a2-3)Gal(b1-4)GlcNAc(b1-3)Gal(b1-4)GlcNAc
# How it was run: as §1
# [8] = molecular target: Neu5Ac(a2-3)Gal(b1-4)GlcNAc(b1-3)Gal(b1-4)GlcNAc(b1-2)Man(a1-3)[Neu5Ac(a2-3)Gal(b1-4)GlcNAc(b1-3)Gal(b1-4)GlcNAc(b1-2)Man(a1-6)]Man(b1-4)GlcNAc(b1-4)GlcNAc
# How it was run: as §1
# [9] = molecular target: Neu5Ac(a2-3)Gal(b1-4)GlcNAc(b1-3)Gal(b1-4)GlcNAc(b1-3)Gal(b1-4)GlcNAc
# How it was run: as §1
# [10] = molecular target: Neu5Ac(a2-3)Gal(b1-4)GlcNAc(b1-3)Gal(b1-4)GlcNAc(b1-3)Gal(b1-4)GlcNAc(b1-2)Man(a1-3)[Neu5Ac(a2-3)Gal(b1-4)GlcNAc(b1-3)Gal(b1-4)GlcNAc(b1-3)Gal(b1-4)GlcNAc(b1-2)Man(a1-6)]GalNAc
# How it was run: as §1
# [11] = molecular target: Neu5Ac(a2-3)Gal(b1-4)GlcNAc(b1-3)Gal(b1-4)GlcNAc(b1-3)GalNAc
# How it was run: as §1
# [12] = molecular target: Neu5Ac(a2-3)Gal(b1-4)GlcNAc(b1-3)Gal(b1-4)GlcNAc(b1-3)[Neu5Ac(a2-3)Gal(b1-4)GlcNAc(b1-3)Gal(b1-4)GlcNAc(b1-6)]GalNAc
# How it was run: as §1
# [13] = molecular target: Neu5Ac(a2-3)Gal(b1-4)GlcNAc(b1-3)Gal(b1-4)GlcNAc(b1-6)[Gal(b1-3)]GalNAc
# How it was run: as §1
# [14] = molecular target: Neu5Ac(a2-3)Gal(b1-4)GlcNAc(b1-3)Gal(b1-4)[Fuc(a1-3)]GlcNAc
# How it was run: as §1
# [15] = molecular target: Neu5Ac(a2-3)Gal(b1-4)GlcNAc(b1-3)GalNAc
# How it was run: as §1
# [16] = molecular target: Neu5Ac(a2-3)Gal(b1-4)GlcNAc(b1-3)[Neu5Ac(a2-3)Gal(b1-4)GlcNAc(b1-6)]GalNAc
# How it was run: as §1
# [17] = molecular target: Neu5Ac(a2-3)Gal(b1-4)GlcNAc(b1-6)GalNAc
# How it was run: as §1
# [18] = molecular target: Neu5Ac(a2-3)Gal(b1-4)GlcNAc(b1-6)[Gal(b1-3)]GalNAc
# How it was run: as §1
# [19] = molecular target: Neu5Ac(a2-3)Gal(b1-4)GlcNAc(b1-6)[Neu5Ac(a2-3)Gal(b1-3)]GalNAc
# How it was run: as §1
# [20] = molecular target: Neu5Ac(a2-3)Gal(b1-4)GlcNAc6S
# How it was run: as §1
# [21] = molecular target: Neu5Ac(a2-3)Gal(b1-4)[Fuc(a1-3)]GlcNAc
# How it was run: as §1
# [22] = molecular target: Neu5Ac(a2-3)Gal(b1-4)[Fuc(a1-3)]GlcNAc(b1-2)Man
# How it was run: as §1
# [23] = molecular target: Neu5Ac(a2-3)Gal(b1-4)[Fuc(a1-3)]GlcNAc(b1-3)Gal
# How it was run: as §1
# [24] = molecular target: Neu5Ac(a2-3)Gal(b1-4)[Fuc(a1-3)]GlcNAc(b1-3)Gal(b1-4)GlcNAc
# How it was run: as §1
# [25] = molecular target: Neu5Ac(a2-3)Gal(b1-4)[Fuc(a1-3)]GlcNAc(b1-3)Gal(b1-4)[Fuc(a1-3)]GlcNAc(b1-3)Gal(b1-4)[Fuc(a1-3)]GlcNAc
# How it was run: as §1
# [26] = molecular target: Neu5Ac(a2-3)Gal(b1-4)[Fuc(a1-3)]GlcNAc(b1-3)GalNAc
# How it was run: as §1
# [27] = molecular target: Neu5Ac(a2-3)Gal(b1-4)[Fuc(a1-3)]GlcNAc(b1-6)[Gal(b1-3)]GalNAc
# How it was run: as §1
# [28] = molecular target: Neu5Ac(a2-3)Gal(b1-4)[Fuc(a1-3)]GlcNAc(b1-6)[Neu5Ac(a2-3)Gal(b1-3)]GalNAc
# How it was run: as §1
# [29] = molecular target: Neu5Ac(a2-3)Gal(b1-4)[Fuc(a1-3)]GlcNAc6S
# How it was run: as §1
# [30] = molecular target: Neu5Ac(a2-3)Gal6S(b1-4)GlcNAc
# How it was run: as §1
# [31] = molecular target: Neu5Ac(a2-3)Gal6S(b1-4)[Fuc(a1-3)]GlcNAc
# How it was run: as §1
# Neu5Ac(a2-3)GalNAc = molecular target: Neu5Ac(a2-3)GalNAc
# How it was run: as §1
# [32] = molecular target: Neu5Ac(a2-3)GalNAc(b1-4)GlcNAc
# How it was run: as §1
# [33] = molecular target: Neu5Ac(a2-3)[GalNAc(b1-4)]Gal(b1-4)Glc
# How it was run: as §1
# [34] = molecular target: Neu5Ac(a2-3)[GalNAc(b1-4)]Gal(b1-4)GlcNAc
# How it was run: as §1
# [35] = molecular target: Neu5Ac(a2-3)[GalNAc(b1-4)]Gal(b1-4)GlcNAc(b1-3)GalNAc
# How it was run: as §1
# [36] = molecular target: Neu5Ac(a2-3)[Neu5Ac(a2-6)]GalNAc
# How it was run: as §1
# Neu5Ac(a2-6)Gal = molecular target: Neu5Ac(a2-6)Gal
# How it was run: as §1
# [37] = molecular target: Neu5Ac(a2-6)Gal(b1-3)GlcNAc(b1-3)[Gal(b1-4)GlcNAc(b1-6)]Gal(b1-4)Glc
# How it was run: as §1
# Neu5Ac(a2-6)Gal(b1-4)Glc = molecular target: Neu5Ac(a2-6)Gal(b1-4)Glc
# How it was run: as §1
# [38] = molecular target: Neu5Ac(a2-6)Gal(b1-4)GlcNAc
# How it was run: as §1
# [39] = molecular target: Neu5Ac(a2-6)Gal(b1-4)GlcNAc(b1-2)Man
# How it was run: as §1
# [40] = molecular target: Neu5Ac(a2-6)Gal(b1-4)GlcNAc(b1-2)Man(a1-3)Man(b1-4)GlcNAc(b1-4)GlcNAc
# How it was run: as §1
# [41] = molecular target: Neu5Ac(a2-6)Gal(b1-4)GlcNAc(b1-2)Man(a1-3)[Gal(b1-4)GlcNAc(b1-2)Man(a1-6)]Man(b1-4)GlcNAc(b1-4)GlcNAc
# How it was run: as §1
# [42] = molecular target: Neu5Ac(a2-6)Gal(b1-4)GlcNAc(b1-2)Man(a1-3)[GlcNAc(b1-2)Man(a1-6)]Man(b1-4)GlcNAc(b1-4)GlcNAc
# How it was run: as §1
binder,measurement,setting,value
APVPVTKLVCDGDTYKCTAYLDFGDGRWVAQWDTNVFHTG [PhoSpL (Pholiota squarrosa)],glycan array binding signal (z-score),[1],-0.013
same,glycan array binding signal (z-score),[2],-0.261
same,glycan array binding signal (z-score),[3],-0.329
same,glycan array binding signal (z-score),[4],-0.272
same,glycan array binding signal (z-score),[5],-0.465
same,glycan array binding signal (z-score),[6],-0.135
same,glycan array binding signal (z-score),[7],0.503
same,glycan array binding signal (z-score),[8],0.453
same,glycan array binding signal (z-score),[9],-0.644
same,glycan array binding signal (z-score),[10],0.858
same,glycan array binding signal (z-score),[11],0.1
same,glycan array binding signal (z-score),[12],-0.169
same,glycan array binding signal (z-score),[13],-0.091
same,glycan array binding signal (z-score),[14],-0.102
same,glycan array binding signal (z-score),[15],0.082
same,glycan array binding signal (z-score),[16],-0.062
same,glycan array binding signal (z-score),[17],-0.386
same,glycan array binding signal (z-score),[18],0.254
same,glycan array binding signal (z-score),[19],-0.322
same,glycan array binding signal (z-score),[20],0.087
same,glycan array binding signal (z-score),[21],-0.269
same,glycan array binding signal (z-score),[22],-0.453
same,glycan array binding signal (z-score),[23],-0.313
same,glycan array binding signal (z-score),[24],0.226
same,glycan array binding signal (z-score),[25],-0.411
same,glycan array binding signal (z-score),[26],0.095
same,glycan array binding signal (z-score),[27],-0.241
same,glycan array binding signal (z-score),[28],-0.195
same,glycan array binding signal (z-score),[29],-0.286
same,glycan array binding signal (z-score),[30],-0.448
same,glycan array binding signal (z-score),[31],-0.824
same,glycan array binding signal (z-score),Neu5Ac(a2-3)GalNAc,0.028
same,glycan array binding signal (z-score),[32],-0.046
same,glycan array binding signal (z-score),[33],-0.38
same,glycan array binding signal (z-score),[34],-0.438
same,glycan array binding signal (z-score),[35],0.249
same,glycan array binding signal (z-score),[36],-0.123
same,glycan array binding signal (z-score),Neu5Ac(a2-6)Gal,-0.245
same,glycan array binding signal (z-score),[37],0.041
same,glycan array binding signal (z-score),Neu5Ac(a2-6)Gal(b1-4)Glc,-0.201
same,glycan array binding signal (z-score),[38],-0.059
same,glycan array binding signal (z-score),[39],0.065
same,glycan array binding signal (z-score),[40],-0.169
same,glycan array binding signal (z-score),[41],0.874
same,glycan array binding signal (z-score),[42],-0.094
